# Reference: paper PMC4336329 (PLoS ONE, 2015)
# The whole screen tested about 310,000 compounds, of which about 2,200 (0.71%) showed an effect of 50% or more. The effect is printed as a negative number. Some of the results follow.
# Target: human ether-à-go-go-related gene (hERG) potassium channel (human, UniProt Q12809)
# Assay: primary screen, population patch clamp on CHO cells stably expressing hERG
# Sequence of human ether-à-go-go-related gene (hERG) potassium channel (Q12809 whole entry, looked up): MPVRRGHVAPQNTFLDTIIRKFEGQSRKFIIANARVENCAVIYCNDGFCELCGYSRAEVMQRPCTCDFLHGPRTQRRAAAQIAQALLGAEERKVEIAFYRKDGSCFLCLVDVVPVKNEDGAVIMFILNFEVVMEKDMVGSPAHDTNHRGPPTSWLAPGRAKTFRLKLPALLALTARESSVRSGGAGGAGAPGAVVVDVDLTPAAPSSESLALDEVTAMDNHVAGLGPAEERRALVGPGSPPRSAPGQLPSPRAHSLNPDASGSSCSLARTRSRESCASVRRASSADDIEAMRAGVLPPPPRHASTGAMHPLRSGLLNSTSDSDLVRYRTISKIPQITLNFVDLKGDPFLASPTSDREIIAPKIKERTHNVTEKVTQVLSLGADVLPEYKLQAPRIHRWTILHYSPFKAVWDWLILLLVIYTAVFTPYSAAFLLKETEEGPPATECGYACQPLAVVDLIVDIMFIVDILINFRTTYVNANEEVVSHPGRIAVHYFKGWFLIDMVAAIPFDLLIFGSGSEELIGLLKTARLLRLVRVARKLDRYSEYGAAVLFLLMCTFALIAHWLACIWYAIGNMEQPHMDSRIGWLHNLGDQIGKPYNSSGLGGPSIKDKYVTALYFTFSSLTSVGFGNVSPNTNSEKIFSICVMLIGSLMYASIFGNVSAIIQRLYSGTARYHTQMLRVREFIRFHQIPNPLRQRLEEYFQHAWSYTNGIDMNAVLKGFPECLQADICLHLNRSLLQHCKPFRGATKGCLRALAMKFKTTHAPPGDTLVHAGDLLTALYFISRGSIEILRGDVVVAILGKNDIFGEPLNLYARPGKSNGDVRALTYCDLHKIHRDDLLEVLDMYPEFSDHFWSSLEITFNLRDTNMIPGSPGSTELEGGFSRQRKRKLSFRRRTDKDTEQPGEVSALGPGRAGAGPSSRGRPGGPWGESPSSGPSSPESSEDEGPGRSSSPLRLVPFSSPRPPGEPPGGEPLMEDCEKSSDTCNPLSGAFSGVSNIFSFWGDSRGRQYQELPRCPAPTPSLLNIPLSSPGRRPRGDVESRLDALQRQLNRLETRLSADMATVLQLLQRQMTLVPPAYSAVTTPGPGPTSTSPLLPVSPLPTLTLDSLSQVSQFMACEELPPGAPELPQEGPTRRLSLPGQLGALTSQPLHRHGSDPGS
row,SMILES,"hERG current change (%, negative = inhibition) at 1uM [%]"
1,CC12CN3CC(C)(CN(C1)C3c1ccncc1)C2=O (stereo not drawn),12.3
2,O=C(O)c1cc(-c2ccc(Cl)c(Cl)c2)n(-c2ccccc2)n1,9.21
3,Cc1ccc(NC(=O)CCS(=O)(=O)c2ccc(Br)cc2)nc1,23.7
4,O=C(Cn1c(-c2ccc(Cl)cc2)noc1=O)N1CCN(c2ccccc2F)CC1,-6.47
5,Cc1ccc(S(=O)(=O)N(C)CC(=O)NC2CC(C)(C)NC(C)(C)C2)cc1,4.83
6,O=C(c1ccco1)N1N=C(c2ccco2)CC1c1ccc(Cl)cc1Cl (stereo not drawn),13.1
7,CC(O)CNCCOc1ccccc1-c1ccccc1.O=C(O)C(=O)O (stereo not drawn),5.13
8,O=C(O)CNC(=O)/C=C/c1c(Cl)cccc1Cl,-6.28
9,CCn1c(SCC(=O)Nc2ccc(N3CCOCC3)cc2)nnc1C1CC1,14.6
10,Cc1csc(=O)n1CC(=O)Nc1nc2ccccc2s1,-2
11,CC(Oc1ccc(Br)cc1)C(=O)N1CCc2ccccc21 (stereo not drawn),6.01
12,COc1ccc(C(=O)O/N=C(\N)c2ccccn2)c(OC)c1,13.6
13,O=C(c1ccc2c(c1)N(Cc1ccccc1)C(=O)c1ccccc1S2)N1CCCC1,7.21
14,O=C(NC1CCCCC1)N1CCC(c2nc3ccccc3[nH]2)CC1,-0.86
15,Cc1ccc(NC(=O)COC(=O)COc2cccc3c2OC(C)(C)C3)cc1S(=O)(=O)N1CCOCC1,15
16,COC(=O)C(N)Cc1ccc(OC)c([N+](=O)[O-])c1.Cl (stereo not drawn),8.87
17,COCCN(Cc1ccco1)C(=O)C1CCCN(c2ncnc3c2nc2n3CCCCC2)C1 (stereo not drawn),-2.93
18,Cc1cc(NS(=O)(=O)c2ccccc2)cc(Cl)c1O,0.687
19,CCOC(=O)N1CCN(C(=O)CCn2c(=S)[nH]c3cc(OCC)c(OCC)cc3c2=O)CC1,1.19
20,Cc1c(Br)c([N+](=O)[O-])nn1CC(=O)Nc1c(C)n(C)n(-c2ccccc2)c1=O,12.3
21,CCOc1cc(C(c2c(C)[nH][nH]c2=O)c2c(C)[nH][nH]c2=O)ccc1OC(=O)c1cccc([N+](=O)[O-])c1,-8.03
22,O=C(CCNC(=O)c1ccc(Cl)cc1)Nc1ccccc1Cl,11
23,Cc1cc(C)c(OCCN(C)Cc2ccccc2)c(Br)c1,14

row,SMILES,"hERG current change (%, negative = inhibition) at 1uM [%]"
1,COc1ccccc1-c1nc(-c2ccc(C(=O)O)cc2)no1,15.5
2,CCOc1ccc(Oc2ccc(-c3nnc(-c4ccccc4)o3)cc2[N+](=O)[O-])cc1,10.1
3,CNC(=O)CC12CC3CC(CC(C3)C1)C2,8.07
4,Cc1ccc(OCC(=O)N2CCN(C(=O)c3cccnc3)CC2)cc1,-2.21
5,Cc1ccccc1-n1nc2c(c1NC(=O)c1ccc(S(=O)(=O)N(C)C)cc1)CSC2,15.4
6,Cc1ccc(S(=O)(=O)N2CCN(C(=S)NCCc3ccccc3)CC2)cc1,7.08
7,O=C1CCCS(=O)(=O)c2ccccc21,2.81
8,CCNC(=S)NNC(=O)c1cc(-c2cccc(OC)c2)nc2ccccc12,8.11
9,COCCCNC(=O)C1CCC(CNS(=O)(=O)c2ccc3c(c2)N(C(C)=O)CCO3)CC1 (stereo not drawn),2.67
10,CCN1CCCC1CNC(=O)c1cc(NC(C)=O)c(N(C)C)cc1OC (stereo not drawn),18.8
11,COc1ccc(C2/C(=C(\O)c3ccc4c(c3)OCCO4)C(=O)C(=O)N2Cc2cccnc2)cc1 (stereo not drawn),16.8
12,CN(C)C(=O)c1ccc(NC(=O)COC(=O)C2=COCCO2)cc1,15
13,CCOC(=O)c1nn(-c2ccccc2C)c2nc(CC(C)C)c(C#N)c(=O)n12,15.8
14,CCn1c(NC(=O)C(C)C)c(-c2ccccc2)c(=O)c2ccccc21,3.91
15,O=C(O)COc1cccc2ccccc12,-1.41
16,NC(=S)N/N=C/c1coc2cc(Br)ccc2c1=O,15.1
17,S=C(Nc1ccccc1)Nc1ccc(Cl)cc1Cl,16.5
18,COc1ccc(N2CCC(CNC(=O)Nc3ccc(OC)cc3OC)C2)cc1 (stereo not drawn),11.5
19,CCn1c(=O)c(-c2ccccc2)c(O)c2ccccc21,7.88
20,CC1(C)NC(=O)N(CC(O)COC2CCCCC2)C1=O (stereo not drawn),6.03
21,COc1ccccc1C(=O)OCc1c(F)cccc1Cl,8.76
22,Cn1c(=O)c2c(ncn2CC(=O)Nc2ccccc2)n(C)c1=O,8.18
23,CCC1(c2ccccc2)NC(=O)N(CC#N)C1=O (stereo not drawn),18

row,SMILES,"hERG current change (%, negative = inhibition) at 1uM [%]"
1,COc1ccc2sc(-c3ccc(N(C)C)cc3)c(C#CCCO)c2c1,17.8
2,COc1ccc(/C=N/NC(=O)CNC(=O)c2ccncc2)cc1,14.8
3,Cc1ccc(-c2cc(C(=O)NCc3ccccn3)c3ccccc3n2)cc1,2.69
4,CC1CCN(c2c(NCC3CCC(C(=O)N4CCCCC4)CC3)c(=O)c2=O)CC1 (stereo not drawn),17.7
5,Cc1cc(-c2ccc(C(=O)O)s2)cnc1N,-2.15
6,Cc1sc2nc(C3CCCCC3)nc(SCC(=O)N3CC(=O)Nc4ccccc43)c2c1C,39.7
7,O=C(CN(C(=O)c1ccc(Cl)cc1)C1CCCCC1)Nc1ccc(Cl)c([N+](=O)[O-])c1,3.68
8,c1ccc(Cc2nnc(N3CCOCC3)c3ccccc23)cc1,5.45
9,CC(C)c1cc(Br)c(NC(=O)Nc2cccnc2)c(Br)c1,15.7
10,CCn1cc(C(=O)N[C@@H](CCSC)C(=O)NCCCOC)c(=O)c2cc3c(cc21)OCO3,16.9
11,CC(=O)NS(=O)(=O)c1ccc(NC(=O)c2cccc(OCc3c(C)noc3C)c2)cc1,5.78
12,Cc1cccc(C)c1NC(=O)COC(=O)C1CC1,8.49
13,COc1ccc(S(=O)(=O)CC(=O)c2cc3cccc(C)c3oc2=O)cc1,12.7
14,CC(=O)C1C(c2ccc(Br)cc2)C2C(C)=NN=C2CC1(C)O (stereo not drawn),9.68
15,Cc1nc(C)n(C(C)CNC(=O)c2ccccc2)n1 (stereo not drawn),13.8
16,COc1ccc(S(=O)(=O)N(C)C)cc1NC(=O)COC(=O)c1nn(C)c(=O)c2ccccc12,6.18
17,C=CCc1cccc(/C=N/c2ncn[nH]2)c1O,3.09
18,c1ccc(-c2nn3c(C4CCCCC4)nnc3s2)nc1,11
19,Cc1cc(C)cc(-n2ccnc2SCC(=O)O)c1,5.33
20,CC(=O)NCCOC(=O)c1nn(Cc2ccccc2)c(=O)c2ccccc12,5.29
21,COc1cc(NC2c3ccccc3C(=O)N2Cc2ccccc2Cl)cc(OC)c1OC (stereo not drawn),2.33
22,CCC1CCCCN1C(=O)CCNC(=O)Cn1cnc2ccccc2c1=O (stereo not drawn),16.5
23,COc1ccccc1CNS(=O)(=O)CC12CCC(CC1=O)C2(C)C (stereo not drawn),6.62

row,SMILES,"hERG current change (%, negative = inhibition) at 1uM [%]"
1,O=C(Nc1ccc([N+](=O)[O-])cc1Br)c1cccnc1,2.74
2,COc1ccc(S(=O)(=O)/N=C2/NC(=O)/C(=C/c3ccco3)S2)cc1,12.5
3,COC(=O)c1ccccc1NC(=O)Cc1nc(-c2ccccc2)sc1-c1ccc(C)cc1,-2.02
4,CCOC(=O)c1c(C)[nH]c(C(=O)COC(=O)c2ccncc2)c1C,4.1
5,CC(=O)c1c(C)cc(C)c(CSc2nc(C)cc(=O)[nH]2)c1C,6.99
6,CC(C)Oc1cccc(C(=O)NC(=S)Nc2cccc(C(F)(F)F)c2)c1,10.4
7,CCc1noc(C)c1C(=O)NCCc1c[nH]c2ccccc12,7.87
8,O=C(NCc1ccccc1)C(c1ccc(F)cc1)N(C(=O)c1csnn1)C1CCCC1 (stereo not drawn),7.93
9,COc1ccc(C(=O)C2CCCN(C(=O)c3cnsn3)C2)c(C)c1 (stereo not drawn),10.4
10,COc1cc(C(=O)NCc2ccc(C)cc2)ccc1OC(F)F,2.75
11,O=C(CNS(=O)(=O)c1ccccc1F)Nc1ccc(N2CCOCC2)cc1,-0.205
12,CC1(C(=O)Nc2nc3ccccc3s2)CC1(Br)Br (stereo not drawn),12.2
13,Cc1cc(Nc2cccc(Cl)c2)nc(N2CCOCC2)n1,10.9
14,Cc1ccc(OC(=O)CCC(=O)Nc2ccc(C(N)=O)cc2)cc1,15.5
15,COCC(C)NC(=O)NC1(C(F)(F)F)Oc2ccc(Cl)cc2O1 (stereo not drawn),13.6
16,CC(=O)NC1C(=O)N=C(SCC(=O)Nc2c(C)cccc2C)NC1=O (stereo not drawn),6.15
17,Nc1cc(-c2ccccc2)nn1S(=O)(=O)c1ccc(Br)cc1,14.8
18,COc1ccc(NC(=O)C2CCC(CNc3c(N4CCOCC4)c(=O)c3=O)CC2)cc1Cl (stereo not drawn),27.6
19,C/C(CC(c1ccccc1)c1c(O)c2ccccc2oc1=O)=N\NC(N)=S (stereo not drawn),8.07
20,O=S(=O)(c1ccc(Cl)cc1)N1CCN(Cc2ccc(O)c3ncccc23)CC1,3.27
21,Cc1ccc(CCC(=O)Nc2ccc(N(C)C)cc2)o1,4
